Data from the CheMixHub viscosity set.

| Structure (SMILES) | viscosity (303.15 K, 101.33 kPa) | viscosity (308.15 K, 101.33 kPa) | viscosity (298.15 K, 101 kPa) | viscosity (303.15 K, 101 kPa) | further results |
| --- | --- | --- | --- | --- | --- |
| COC(=O)CC(C)=O | 1.421 ± 0.034 mPa·s, 1.422 ± 0.068 mPa·s, 1.421 ± 0.035 mPa·s [study A] and 1.427 ± 0.018 mPa·s, 1.427 ± 0.035 mPa·s [study B] | 1.298 ± 0.032 mPa·s, 1.298 ± 0.063 mPa·s [study A] and 1.304 ± 0.017 mPa·s, 1.304 ± 0.032 mPa·s [study B] |  |  | viscosity (298.15 K, 101.33 kPa): 1.564 ± 0.038 mPa·s, 1.566 ± 0.074 mPa·s [study A] and 1.568 ± 0.02 mPa·s, 1.568 ± 0.038 mPa·s [study B] |
| CCOc1ccccc1 |  |  | 1.134 ± 0.051 mPa·s [study A] and 1.16 ± 0.05 mPa·s [study B] and 1.113 ± 0.011 mPa·s [study C] and 1.122 ± 0.03 mPa·s [study D] |  |  |
| CCOC(C)=O | 0.41 ± 0.006 mPa·s [study A] and 0.407 ± 0.006 mPa·s [study B] and 0.437 ± 0.013 mPa·s [study C] and 0.407 ± 0.003 mPa·s [study D] | 0.39 ± 0.006 mPa·s [study A] and 0.421 ± 0.012 mPa·s [study B] and 0.385 ± 0.023 mPa·s, 0.385 ± 0.044 mPa·s [study C] | 0.4244 ± 0.0041 mPa·s, 0.4244 ± 0.0017 mPa·s, 0.4236 ± 0.011 mPa·s, 0.434 ± 0.012 mPa·s, 0.424 ± 0.005 mPa·s, 0.4315 ± 0.011 mPa·s, 0.44 ± 0.01 mPa·s, 0.4193 ± 0.0038 mPa·s, 0.429 ± 0.011 mPa·s, 0.433 ± 0.037 mPa·s, 0.434 ± 0.006 mPa·s, 0.462 ± 0.006 mPa·s, 0.4637 ± 0.028 mPa·s, 0.42 ± 0.025 mPa·s [several studies] | 0.409 ± 0.009 mPa·s, 0.4066 ± 0.011 mPa·s, 0.4104 ± 0.0048 mPa·s, 0.402 ± 0.004 mPa·s, 0.4104 ± 0.011 mPa·s, 0.38 ± 0.008 mPa·s, 0.41 ± 0.035 mPa·s, 0.4213 ± 0.018 mPa·s, 0.41 ± 0.02 mPa·s, 0.4306 ± 0.0093 mPa·s [several studies] | viscosity (293.15 K, 101 kPa): 0.46 ± 0.02 mPa·s [study A] and 0.45 ± 0.011 mPa·s [study B] and 0.454 ± 0.01 mPa·s [study C] and 0.4545 ± 0.012 mPa·s [study D]; viscosity (303.15 K, 100 kPa): 0.39 mPa·s [study A] and 0.3802 ± 0.0029 mPa·s [study B]; viscosity (308.15 K, 100 kPa): 0.38 mPa·s [study A] and 0.37 ± 0.07 mPa·s [study B]; viscosity (308.15 K, 101 kPa): 0.39 ± 0.033 mPa·s [study A] and 0.39 ± 0.02 mPa·s [study B] and 0.4272 ± 0.026 mPa·s [study C] and 0.4095 ± 0.0089 mPa·s [study D] and 0.41 ± 0.006 mPa·s [study E] and 0.384 ± 0.01 mPa·s [study F] and 0.368 ± 0.008 mPa·s [study G]; viscosity (313.15 K, 100 kPa): 0.36 mPa·s [study A] and 0.35 ± 0.07 mPa·s [study B]; viscosity (313.15 K, 101 kPa): 0.368 ± 0.009 mPa·s, 0.36 ± 0.004 mPa·s, 0.372 ± 0.008 mPa·s, 0.3657 ± 0.0098 mPa·s, 0.3689 ± 0.0099 mPa·s, 0.35 ± 0.007 mPa·s, 0.37 ± 0.02 mPa·s, 0.3879 ± 0.0084 mPa·s, 0.362 ± 0.022 mPa·s [several studies]; viscosity (318.15 K, 100 kPa): 0.35 mPa·s [study A] and 0.34 ± 0.07 mPa·s [study B]; viscosity (318.15 K, 101 kPa): 0.35 ± 0.02 mPa·s [study A] and 0.3973 ± 0.024 mPa·s [study B] and 0.353 ± 0.01 mPa·s [study C] and 0.334 ± 0.007 mPa·s [study D] |
| OCC(O)CO |  |  | 909.8 ± 340 mPa·s [study A] and 905.6 ± 54 mPa·s [study B] and 706 ± 80 mPa·s [study C] and 938 ± 96 mPa·s [study D] | 589 ± 210 mPa·s [study A] and 612 ± 27 mPa·s [study B] and 520.6 ± 28 mPa·s [study C] and 492.1 ± 25 mPa·s [study D] |  |

± gives the uncertainty stated by the source. Not every entry of the source has a single result; some have several. This list holds those alone. The source may hold further records. The records of an entry are repeats (runs, samples, wells, individuals or studies). A tag in brackets gives the origin of a value. A, B and so on number the origins entry by entry.
